We go through two molecules from EP4786499A1 (Guangdong Fapon Biopharma Inc., dated 2026).

For assay [1], the target named is T1, cyno IL10R1 (cyno, UniProt A0A2K5WJ66 22-576).
T1 construct: whole, on cells; also called CHO/cyno IL10R1; monkey IL10R1
T1 sequence: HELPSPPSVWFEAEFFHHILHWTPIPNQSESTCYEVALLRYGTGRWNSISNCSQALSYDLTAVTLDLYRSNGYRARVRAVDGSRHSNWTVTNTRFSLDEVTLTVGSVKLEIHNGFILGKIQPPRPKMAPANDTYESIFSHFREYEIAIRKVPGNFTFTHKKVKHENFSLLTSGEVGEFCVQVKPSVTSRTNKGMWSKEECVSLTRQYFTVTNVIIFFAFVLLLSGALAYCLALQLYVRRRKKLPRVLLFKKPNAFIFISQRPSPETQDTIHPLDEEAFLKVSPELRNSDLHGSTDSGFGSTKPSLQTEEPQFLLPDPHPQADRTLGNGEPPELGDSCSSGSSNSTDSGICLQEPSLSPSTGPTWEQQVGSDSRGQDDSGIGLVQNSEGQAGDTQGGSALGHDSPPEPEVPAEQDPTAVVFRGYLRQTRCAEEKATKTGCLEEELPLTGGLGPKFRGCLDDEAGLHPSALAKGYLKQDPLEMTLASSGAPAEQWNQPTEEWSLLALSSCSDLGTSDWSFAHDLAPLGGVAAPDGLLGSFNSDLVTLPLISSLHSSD
Nature of the assay: FACS on CHO/cyno IL10R1 cells.

Assay [2] deals with T2, human IL10R1 (human, UniProt Q13651 22-578).
T2 construct: whole, on cells; also called CHO/human IL10R1
T2 sequence (looked up): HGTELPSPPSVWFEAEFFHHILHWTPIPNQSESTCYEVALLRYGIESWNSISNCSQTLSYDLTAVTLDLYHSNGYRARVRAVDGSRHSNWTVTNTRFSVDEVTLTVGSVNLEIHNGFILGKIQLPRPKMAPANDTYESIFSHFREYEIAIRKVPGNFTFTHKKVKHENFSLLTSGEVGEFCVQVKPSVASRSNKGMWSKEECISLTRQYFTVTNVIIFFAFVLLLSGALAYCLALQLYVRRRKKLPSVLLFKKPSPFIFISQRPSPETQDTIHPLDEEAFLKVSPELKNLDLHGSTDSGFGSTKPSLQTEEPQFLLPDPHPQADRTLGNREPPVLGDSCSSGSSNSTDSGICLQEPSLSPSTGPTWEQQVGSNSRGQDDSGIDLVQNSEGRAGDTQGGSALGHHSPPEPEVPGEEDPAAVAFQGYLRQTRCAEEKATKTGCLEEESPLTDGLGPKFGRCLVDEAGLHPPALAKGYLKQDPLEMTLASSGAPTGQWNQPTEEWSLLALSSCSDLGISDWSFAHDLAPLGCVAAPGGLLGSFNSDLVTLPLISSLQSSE
Nature of the assay: FACS on CHO/human IL10R1 cells.

Assay [3] concerns the target T3, human IL10R (IL-10 receptor on the H_IL10 Reporter 293 Cell Line) (human, UniProt Q13651 22-578).
T3 sequence (looked up): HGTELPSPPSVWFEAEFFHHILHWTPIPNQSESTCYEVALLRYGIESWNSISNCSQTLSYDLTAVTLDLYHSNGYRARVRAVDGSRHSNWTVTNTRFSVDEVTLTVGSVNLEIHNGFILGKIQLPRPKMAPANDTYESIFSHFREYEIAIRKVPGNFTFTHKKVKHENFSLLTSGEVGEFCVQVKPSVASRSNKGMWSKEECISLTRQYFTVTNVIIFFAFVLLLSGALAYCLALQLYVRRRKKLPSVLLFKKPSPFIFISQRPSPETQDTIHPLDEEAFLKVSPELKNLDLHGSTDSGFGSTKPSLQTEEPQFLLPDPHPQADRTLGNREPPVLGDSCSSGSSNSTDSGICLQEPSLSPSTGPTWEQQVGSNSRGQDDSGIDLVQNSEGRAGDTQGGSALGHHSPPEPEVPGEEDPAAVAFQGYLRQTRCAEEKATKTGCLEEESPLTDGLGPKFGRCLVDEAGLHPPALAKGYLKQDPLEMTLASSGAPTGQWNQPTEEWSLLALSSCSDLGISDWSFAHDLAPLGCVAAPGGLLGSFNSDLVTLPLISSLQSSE
Nature of the assay: cell-based or functional assay.

Assay [4] deals with T4, mouse IL10R1 (mouse, UniProt Q61727 17-575).
T4 construct: whole, on cells; also called CHO/mouse IL10R1
T4 sequence (looked up): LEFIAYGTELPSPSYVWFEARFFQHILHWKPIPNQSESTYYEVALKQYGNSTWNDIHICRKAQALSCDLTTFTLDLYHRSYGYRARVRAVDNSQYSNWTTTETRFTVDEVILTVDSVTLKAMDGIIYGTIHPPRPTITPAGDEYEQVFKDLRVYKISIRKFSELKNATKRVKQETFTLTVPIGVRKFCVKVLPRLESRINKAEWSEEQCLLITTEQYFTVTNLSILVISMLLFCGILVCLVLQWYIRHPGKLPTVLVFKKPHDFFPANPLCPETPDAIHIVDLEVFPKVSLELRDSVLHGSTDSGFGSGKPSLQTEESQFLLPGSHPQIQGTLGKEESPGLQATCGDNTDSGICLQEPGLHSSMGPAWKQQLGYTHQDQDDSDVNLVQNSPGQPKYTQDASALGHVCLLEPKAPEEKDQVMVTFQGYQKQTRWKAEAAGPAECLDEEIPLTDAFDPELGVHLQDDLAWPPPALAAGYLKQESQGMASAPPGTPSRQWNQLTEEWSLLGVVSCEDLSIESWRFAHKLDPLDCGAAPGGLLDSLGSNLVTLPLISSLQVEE
The assay can be described thus: FACS on CHO/mouse IL10R1 cells.

B1: R3361: ISO-hIgG1.8-wtIL10 (other)
heavy: QVQLVESGGGVVQPGRSLRLSCAASGFTFSSYGMHWVRQAPGKGLEWVAAIWYDGSNKYYTDSVKGRFTISRDNSKNTLYLQMNSLRAEDTAVYYCARDLRGVMYFDLWGRGTLVTVSSASTKGPSVFPLAPSSKSTSGGTAALGCLVKDYFPEPVTVSWNSGALTSGVHTFPAVLQSSGLYSLSSVVTVPSSSLGTQTYICNVNHKPSNTKVDKRV[left out - human IgG1 Fc with changes]AGGGGSGGGGSGGGGSGGGGSGSPGQGTQSENSCTHFPGNLPNMLRDLRDAFSRVKTFFQMKDQLDNLLLKESLLEDFKGYLGCQALSEMIQFYLEEVMPQAENQDPDIKAHVNSLGENLKTLRLRLRRCHRFLPCENKSKAVEQVKNAFNKLQEKGIYKAMSEFDIFINYIEAYMTMKIRN
light: EIVLTQSPATLSLSPGERATLSCRASQSVSRYLAWYQQKPGQAPRLLIYDASNRATGIPARFSGSGSGTDFTLTISSLEPEDFAVYYCQLRNNWPLTFGGGTKVEIKRTVAAPSVFIFPPSDEQLKSGTASVVCLLNNFYPREAKVQWKVDNALQSGNSQESVTEQDSKDSTYSLSSTLTLSKADYEKHKVYACEVTHQGLSSPVTKSFNRGEC
notes: Isotype antibody fused with wild-type IL10; also called wild-type IL10 control R3361
Turning to B1, the EC50 in assay [1] came out at 5.03 nM; in assay [2] it was 8.66 nM; in assay [4], 2.46 nM. The “EC50 of luciferase reporter gene activity on H_IL10 Reporter 293 Cell Line, enriched (with CHO/human PD-1 cells)” value in assay [3] is 2.92 nM. The “EC50 of luciferase reporter gene activity on H_IL10 Reporter 293 Cell Line, non-enriched” value in assay [3] came to 2.81 nM.

B2: R1187: ISO-hIgG1.8-IL10M (other)
heavy: QVQLVESGGGVVQPGRSLRLSCAASGFTFSSYGMHWVRQAPGKGLEWVAAIWYDGSNKYYTDSVKGRFTISRDNSKNTLYLQMNSLRAEDTAVYYCARDLRGVMYFDLWGRGTLVTVSSASTKGPSVFPLAPSSKSTSGGTAALGCLVKDYFPEPVTVSWNSGALTSGVHTFPAVLQSSGLYSLSSVVTVPSSSLGTQTYICNVNHKPSNTKVDKRV[left out - human IgG1 Fc with changes]
light: EIVLTQSPATLSLSPGERATLSCRASQSVSRYLAWYQQKPGQAPRLLIYDASNRATGIPARFSGSGSGTDFTLTISSLEPEDFAVYYCQLRNNWPLTFGGGTKVEIKRTVAAPSVFIFPPSDEQLKSGTASVVCLLNNFYPREAKVQWKVDNALQSGNSQESVTEQDSKDSTYSLSSTLTLSKADYEKHKVYACEVTHQGLSSPVTKSFNRGECGGGGSGGGGSGGGGSGGGGSGGQGTQSENSCTHFPGNLPNMLRDLRDAFSRVKTFFQMKDQLDNLLLKESLLEDFKGYLGCQALSEMIQFYLEEVMPQAENQDPDIKAHVNSLGENLKTLRLRLRRCHRFLPCENGGGSGGKSKAVEQVKNAFNKLQEKGIYKAMSEFDIFINYIEAYMTMKIRN
notes: Isotype antibody fused with modified IL10 (IL10M); also called control antibody R1187
As for B2, the EC50 in assay [1] stood at 4.25 nM; in assay [2] it was 8.51 nM; in assay [4] it was 2.14 nM. In addition, the “EC50 of luciferase reporter gene activity on H_IL10 Reporter 293 Cell Line, enriched (with CHO/human PD-1 cells)” value in assay [3] is 4.92 nM. Also, the “EC50 of luciferase reporter gene activity on H_IL10 Reporter 293 Cell Line, non-enriched” value in assay [3] was 4.54 nM.

The term EC50 denotes the midpoint of the concentration-response curve. A lower EC50 goes with greater potency.
